# Reference: PubChem BioAssay AID485281 (National Center for Advancing Translational Sciences (NCATS), 2010)
# About 260 (0.074%) of roughly 350,000 compounds were called active. The inconclusive results got no clear call from the source; some entries with a clear call stand among them for comparison. Calls follow the shape of the dose curve; as a rule, active = well fitted inhibition curve with a large enough effect; inconclusive = small, poorly fitted or top-dose-only effect; inactive = no such curve, though single readings can be large or run the other way. Potencies of inconclusive entries are doubtful fits and often do not repeat.
# Biological target: Ferritin light chain (Equus caballus) (UniProt P02791)
# Assay: qHTS Assay for Identification of Novel General Anesthetics; also: nearly all actives have a fitted effect of over 20% in size
# Details: apoferritin/1-aminoanthracene competitive binding, fluorescence; activity change, negative = displacement: at 77.5 µM (top of the series)
# How it was run: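 Steps: apoferritin (10 uM) was premixed with half-saturated 1-AMA in PBS, compounds were pin-transferred, plates stood 10 min at room temperature, fluorescence was read at 380/535 nm, and curves were fitted with a Hill equation.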
# % is scaled to controls: 0 for no effect and ±100 for the full control effect; potency is read from the fitted curve at half-maximal effect; tags tell the direction and shape of the fitted curve.
# UniProt P02791, sequence (P02791 whole entry, looked up): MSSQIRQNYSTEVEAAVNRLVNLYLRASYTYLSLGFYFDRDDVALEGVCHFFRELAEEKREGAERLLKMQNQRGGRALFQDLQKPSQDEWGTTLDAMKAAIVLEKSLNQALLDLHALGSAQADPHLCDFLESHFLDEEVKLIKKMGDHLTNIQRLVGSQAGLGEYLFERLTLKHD
Compound,"activity change, negative = displacement",Potency
COc1ccc(OCC(=O)NNc2c3ccccc3nc3ccccc23)cc1,inactive: -5.38%,–
CC1CCCC(C)N1C(=O)COc1ccc([N+](=O)[O-])cc1Cl (stereo not given),–,"inconclusive: 39.8 µM [inhibitor, single point]"
COc1ccc(Nc2ncnc3c2cnn3-c2ccc(C)cc2)cc1Cl,inactive: 43%,–
Cc1cccc(NS(=O)(=O)c2ccc(C3CCCCC3)cc2)c1,–,"inconclusive: 6.31 µM [inhibitor, partial curve]"
CCN(CC)S(=O)(=O)c1ccc(C)c(NC(=O)Cn2cnc3cc([N+](=O)[O-])ccc3c2=O)c1,–,"inconclusive: 20 µM [inhibitor, partial curve]"
O=C(c1ccc2nccnc2c1)N1CCN(Cc2ccc3c(c2)OCO3)CC1,inactive: 13.3%,–
COc1ccc(OC)c(-c2nc(CN3CCN(C(=O)c4ccco4)CC3)c(C)o2)c1,inactive: -7.47%,–
Cc1ccc(OC(=O)CN2C(=O)c3ccccc3C2=O)cc1C,–,"inconclusive: 11.2 µM [inhibitor, partial curve]"
Cc1cc(C)nc(SCc2ccc3nonc3c2)n1,–,"inconclusive: 17.8 µM [inhibitor, partial curve]"
COc1ccc(-c2onc(C)c2C)cc1S(=O)(=O)NCC1CCN(Cc2cc(C)ccc2C)CC1,inactive: -1.35%,–
O=C(CCc1nnc(CCCCc2ccccc2)o1)NCCc1cccnc1,–,"inconclusive: 28.2 µM [inhibitor, partial curve]"
Cc1nc(SCC2(C)CC2(Cl)Cl)n[nH]1 (stereo not given),–,"inconclusive: 31.6 µM [inhibitor, partial curve]"
CCCc1[nH]n(-c2nc3ccccc3s2)c(=O)c1C=NCCCOC,inactive: -9%,–
COc1ccc(Br)cc1C(=O)Nc1ccc(N2CCN(S(C)(=O)=O)CC2)cc1,inactive: -14.7%,–
CCN1CC(CN(C)Cc2cn(-c3cccc(C)c3)nc2-c2cccc(F)c2)CC1=O (stereo not given),–,"inconclusive: 39.8 µM [inhibitor, single point]"
Cc1cccc(NC(=S)NCCC(c2ccccc2)c2ccccc2)c1,inactive: 68.4%,–
O=S(=O)(Nc1ccccn1)c1ccc(-n2cccn2)cc1,inactive: -4.41%,–
Cc1ccc(-c2cc3nc(-c4ccc(Br)cc4)cc(N)n3n2)cc1,inactive: 4.59%,–
CC1(C)CC(=O)C(C(C#Cc2ccccc2)C2=C(O)CC(C)(C)CC2=O)=C(O)C1,–,"inconclusive: 39.8 µM [inhibitor, single point]"
Cc1cc(C)n(-c2cc(N3CCN(S(=O)(=O)c4ccc(Br)cc4)CC3)ccc2[N+](=O)[O-])n1,inactive: -3.03%,–
CC(C)CN(C(=O)c1nn(C)c(=O)c2ccccc12)c1nc2ccccc2s1,–,"inconclusive: 3.98 µM [inhibitor, full curve, poor fit]"
Cc1ccc(N/C=C/C(=O)C(C)(C)C)c(O)c1,–,"inconclusive: 39.8 µM [inhibitor, partial curve]"
C/C(Cc1ccccc1)=N\NC(=O)CNC(=O)c1ccc(Cl)cc1,inactive: -19.4%,–

Compound,"activity change, negative = displacement",Potency
COc1ccc(NC(=O)c2cc3c(s2)CCC(C)C3)cc1S(=O)(=O)N1CCOCC1 (stereo not given),–,"inconclusive: 20 µM [inhibitor, partial curve]"
CCOC(=O)C(C)On1c(-c2cccc(Cl)c2)nc2ccc([N+](=O)[O-])cc21 (stereo not given),–,"inconclusive: 35.5 µM [inhibitor, partial curve]"
Cc1cc(C)cc(OCC(=O)OCC(=O)c2cc(C)n(C3CC3)c2C)c1,–,"inconclusive: 14.1 µM [inhibitor, partial curve]"
O=C(CN1CCCCCC1)Nc1ccc(Br)cc1,inactive: -21.9%,–
COc1ccc(-n2cc(-c3ccccc3)c3c(Nc4ccc(OC)c(OC)c4)ncnc32)cc1,–,"inconclusive: 6.31 µM [inhibitor, full curve]"
COc1ccc(OC)c(NC(=O)Cn2c(CCC(=O)O)ccc2-c2cccs2)c1,inactive: -5.72%,–
COc1ccc(C)cc1NC(=O)NC(C)c1c(-n2cccc2)sc(C)c1C (stereo not given),inactive: 0.308%,–
CCN(CC)CCCNc1sc(S(=O)(=O)c2ccccc2)nc1S(=O)(=O)c1ccc(Cl)cc1,–,"inconclusive: 31.6 µM [inhibitor, partial curve]"
Cc1ccc(C2=NS(=O)(=O)N(C)C(C(=O)Nc3ccc(F)cc3F)=C2)cc1,–,"inconclusive: 44.7 µM [inhibitor, partial curve]"
CCOc1cc(/C=N/O)cc(Br)c1OC,–,"inconclusive: 31.6 µM [inhibitor, partial curve]"
Cc1ccc(Sc2c(C)nn(C(=O)c3cccc(S(=O)(=O)N4CCOCC4)c3)c2C)cc1,–,"inconclusive: 31.6 µM [inhibitor, partial curve]"
O=C(Cn1c(=O)[nH]c2ccsc2c1=O)NC1CCCCC1,–,"inconclusive: 28.2 µM [inhibitor, partial curve]"
CC(=O)c1c(C)[nH]c(C(=O)Nc2ccc(S(=O)(=O)N(C)C)cc2)c1C,–,"inconclusive: 12.6 µM [inhibitor, single point]"
Cc1c(C#N)c2ncnc(-c3ccccc3)c2n1-c1ccccc1,inactive: 1.12%,–
Cc1cccc(C2c3[nH]c4ccccc4c3CCN2C(=O)c2cc(C(C)C)nc(N)n2)n1 (stereo not given),–,"inconclusive: 11.2 µM [inhibitor, partial curve]"
Cc1ccc(NS(=O)(=O)c2ccc3[nH]c4c(c3c2)CCCC4)cc1N(C)C,inactive: -4.57%,–
O=S(=O)(NC(=S)NC1CCCCC1)c1ccc(Cl)cc1,inactive: -13.7%,–
Cc1nc2ccn(Cc3cccs3)c(=O)c2cc1C(=O)N1CCN(c2ccccc2F)CC1,inactive: -22.2%,–
O=C(Nc1cnn(Cc2ccc(Cl)cc2)c1)c1ccc([N+](=O)[O-])cc1,–,"inconclusive: 28.2 µM [inhibitor, partial curve]"
Nc1nc(F)cc(N2CCCCCC2)n1,–,"inconclusive: 28.2 µM [inhibitor, partial curve]"
CSc1nnc(Cn2c(=O)sc3ccccc32)n1-c1cccc(Cl)c1,–,"inconclusive: 39.8 µM [inhibitor, single point]"
CC(C)C[C@H](NC(=O)CNC(=O)[C@@H]1CCCN1C(=O)[C@H](CCCNC(=N)N)NC(=O)[C@H](CC(=O)O)NC(=O)[C@@H](NC(=O)[C@H](CC(N)=O)NC(=O)[C@@H](NC(=O)[C@H](CC(=O)O)NC(=O)CNC(=O)[C@@H](NC(=O)[C@@H](NC(=O)[C@H](C)NC(=O)[C@@H](N)CCC(N)=O)[C@@H](C)O)C(C)C)C(C)C)[C@@H](C)O)C(=O)N[C@@H](CC(C)C)C(=O)N[C@@H](CC(=O)O)C(=O)N[C@@H](CC(C)C)C(=O)N[C@@H](CCCCN)C(=O)O,inactive: 4.36%,–
